± gives the standard deviation of the averaged measurements. The list shows a part of the results.

This assay relates to PfAP2-G AP2 domain (GST-tagged). The experiment in a line: gcPBM binding intensity (ln(normalized median fluorescence intensity)); higher = stronger DNA binding. An outline of the steps: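 GST-tagged P. falciparum DNA-binding domains produced in E. coli were incubated for 1 h on an Agilent 4 × 180k array of primer-extended double-stranded 36-bp intergenic genomic probes with negative controls. Binding intensity is the highest Masliner-normalised natural-log median intensity across replicate spots of either probe orientation, with bound protein detected by Alexa488 anti-GST antibody at 488 nm.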
Take “GGTCTTATTTTTAGTAGTACAAATATAATATACATA [XGTACX_site6483]”: the “gcPBM binding intensity (ln)” value was determined as 11.4 ± 0.83.
Under “CTAAACAGAATTATCACACATATAAATATAAACATA [CACACA_site4560]” stands 9.725 ± 0.007.
In the case of ATATATTACATATGTGTGCACGTTCCAAAATTTTTA, the “gcPBM binding intensity (ln)” value amounted to 10.6 ± 0.19.
Under “AAAATACACGCATACACACACACACGCGCACATATA [CACACA_site6448]” stands 10.5 ± 0.16.
“TTTTCATGTTGTAAAGCATGCTTTACTCATAAAAAA [TGCATGCA_site917]”: the “gcPBM binding intensity (ln)” value was 9.95 ± 0.23.
“ATTATTAAAAGAAGAAGTACTTATATATTAATATTA [XGTACX_site5227]”: the “gcPBM binding intensity (ln)” value is 11.3 ± 0.83.
As for “TATAAAAATATTTAATGTACGAATCTGTGATATATC [XGTACX_site7881]”, the “gcPBM binding intensity (ln)” value was 10.9 ± 0.66.
With TTAAAATAGATATTAGTGCAAAAAAAAAAAAATAAA the figure was 9.9 ± 0.085; with “TTTTGATATAAATATTAGATTAATAAATAAAAAAAT [CACACA_negctrl_site1635]”, 9.705 ± 0.078.
Under TTTTTTGTTTGAATGGTGCATTTTGTAATTATATTT stands 10.2 ± 0.31.
Turning to “ATAATATCATAATATTGTACATATTTTATTTTAAAT [XGTACX_site1115]”, the “gcPBM binding intensity (ln)” value came to 11.1 ± 0.54.
Under “CAACTAACATATATTCAACACACATATACCTTCAAC [CACACA_site8988]” stands 10.14 ± 0.049; under “GTTAGAATTGTTAGGTGGTCAAAAAGGAGAAAAAAA [XGTACX_site2086]”, 11.3 ± 0.89.
As for “TTTTTTTAGTTAATTAAACACACAAAAAAAAAAATA [CACACA_site9301]”, the “gcPBM binding intensity (ln)” value was 10.1 ± 0.4.
For the sequence “TAACATATTATATATACATGCATACGTGAACTAATC [TGCATGCA_site888]”, the “gcPBM binding intensity (ln)” value amounted to 10.2 ± 0.14.
For “ATTGTATATGTATATGCACACAATATATGTACTTAT [CACACA_site2611]”, the “gcPBM binding intensity (ln)” value was 11.3 ± 0.95.
As for “GATATATTATTTGAATGTACATATTATATTTATATT [XGTACX_site907]”, the “gcPBM binding intensity (ln)” value was found to be 11 ± 0.54.
Consider “TTTTTAATTAACTTTTTATAAATAAATAAAAATATA [GTGCAC_negctrl_site334]”, for which the “gcPBM binding intensity (ln)” value turned out to be 9.76 ± 0.26.
With “AAAAGAAAATTAAATTAACACACATAAATATATATA [CACACA_site8482]” the figure was 9.72 ± 0.16; with “TTCACATACAGAAACACACACATATTTATAAATTAA [CACACA_site7699]”, 9.98 ± 0.16; with “ATTATTTAATTTTATTAAAAAAAAACAAATTAACAG [GTGCAC_negctrl_site152]”, 9.98 ± 0.3.
As to “TATTATTTTTCCTAATGTACAAAATATATATTTTTA [XGTACX_site2727]”, the “gcPBM binding intensity (ln)” value is 10.6 ± 0.28.
For “TTTGAATATATAAATATGCACACTTCTATTATAAAT [CACACA_site3359]”, the “gcPBM binding intensity (ln)” value was determined as 9.92 ± 0.042.
With “TTCTTATATAAATACACACACAAAATATCTACAATG [CACACA_site4568]”, the “gcPBM binding intensity (ln)” value is 10.27 ± 0.099.
Regarding “AATCGATTGGATAATATTTTTTCTCTTAATTTTTTG [GTGCAC_negctrl_site165]”, the “gcPBM binding intensity (ln)” value was 9.725 ± 0.092.

Source of the values: the supplement of paper PMC11417369.
